# ± gives the standard deviation of the averaged measurements. In all, about 33,000 sequences were measured (“E-score (dimensionless, -0.5 to 0.5)”: median about -0.049, highest 2% from about 0.37 on). The list shows a part of the results.
# Test system: T1, PmTbr T-box DNA-binding domain (GST fusion)
# T1 sequence: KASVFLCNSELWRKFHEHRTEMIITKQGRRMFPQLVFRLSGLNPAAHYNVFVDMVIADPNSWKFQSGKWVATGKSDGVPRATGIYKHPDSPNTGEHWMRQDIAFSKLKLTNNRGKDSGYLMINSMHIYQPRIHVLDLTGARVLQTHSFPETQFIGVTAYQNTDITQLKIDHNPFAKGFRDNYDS
# Assay: PBM E-score of 8-mer (E-score (dimensionless, -0.5 to 0.5)); Tbr is Tbrain of the sea star Patiria miniata (Pm) or the sea urchin Strongylocentrotus purpuratus (Sp); higher = stronger binding preference; most listed sequences are background and not binding sites
# Conditions: the construct has about 5 more residues each side
# Outline: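 Primer extension turned Universal Agilent oligonucleotide arrays double-stranded. They were incubated with 200 nM protein in PBS (pH 7.5); the protein was a GST-fused Tbr T-box DNA-binding domain expressed in BL21 E. coli at 20 °C and purified on glutathione. Every ungapped 8-mer was scored from the scanned, quantified probe intensities, and the Universal PBM Analysis Suite gave each an enrichment E-score averaged over duplicate arrays.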
row,Sequence,PBM E-score of 8-mer
1,AGCACTGA,0.131 ± 0.018
2,AACAGCCT,0.145 ± 0.021
3,ATCCTGAC,-0.00634 ± 0.065
4,CCCAGGGA,-0.231 ± 0.034
5,TGGAGTAA,-0.0512 ± 0.084
6,CGAAATCC,-0.0303 ± 0.045
7,CGCTAACA,0.351 ± 0.0051
8,CGAGTATA,-0.0319 ± 0.0045
9,ACATATGC,0.0165 ± 0.035
10,TCTTGCAA,0.157 ± 0.0081
11,ATATTTTA,-0.142 ± 0.096
12,ATCAGTAG,-0.16 ± 0.021
13,ATCCGACC,-0.294 ± 0.032
14,AGGTAAAG,-0.00262 ± 0.00052
15,ACTGCGCA,-0.0512 ± 0.015
16,AATTACTG,-0.0968 ± 0.00041
17,ACCCCATC,-0.148 ± 0.095
18,ACAGTTGA,0.137 ± 0.036
19,CATGGACC,-0.238 ± 0.053
20,CCCATAAC,-0.0502 ± 0.043
21,AGTTTATA,0.0231 ± 0.036
22,ATGGCGTC,0.066 ± 0.016
23,CGAATTAA,0.0165 ± 0.093
24,AAACGTGC,0.232 ± 0.023
25,AGCTTCCG,-0.106 ± 0.013

row,Sequence,PBM E-score of 8-mer
1,CCATGTCG,0.177 ± 0.027
2,CCGGACCA,-0.2637 ± 0.00096
3,ACAAGCCC,-0.283 ± 0.056
4,ACTTGCGA,0.386 ± 0.006
5,AAGTATAT,-0.0983 ± 0.071
6,ATTGATCC,0.0355 ± 0.003
7,TAACGTTA,-0.118 ± 0.11
8,TCGCGCGA,0.3886 ± 0.0024
9,AGAACTAG,-0.0544 ± 0.026
10,CGAATACC,0.0788 ± 0.04
11,AGATCCAA,-0.13 ± 0.11
12,CAAGTGCG,0.389 ± 0.015
13,GGGTCGAA,0.0847 ± 0.033
14,CGCAGAAG,0.0263 ± 0.058
15,ATACCGGA,-0.128 ± 0.039
16,AGGCCGGG,-0.214 ± 0.037
17,AGATCTCC,-0.132 ± 0.071
18,CTATCGCA,0.295 ± 0.0089
19,GCCTTGTA,-0.0361 ± 0.051
20,ATGTGACA,0.4393 ± 0.0026
21,CGTAGGTA,-0.283 ± 0.011
22,CCCAATCA,-0.0355 ± 0.011
23,AAACTCAC,0.106 ± 0.012
24,ACGACTGC,-0.053 ± 0.071
25,GAGCCACA,0.129 ± 0.015

row,Sequence,PBM E-score of 8-mer
1,CGCCAAAG,0.161 ± 0.0029
2,ATAGATTG,-0.106 ± 0.034
3,CTGTGCTA,0.0225 ± 0.0027
4,CATGCCTA,-0.384 ± 0.024
5,CCCTCGCC,-0.00497 ± 0.0074
6,TTGCCAAA,0.11 ± 0.066
7,AACCCTGA,-0.108 ± 0.0053
8,TACAAACA,0.0912 ± 0.0067
9,CCGGCACC,0.306 ± 0.0099
10,CTTATGCC,-0.0845 ± 0.1
11,CACGCGCG,0.323 ± 0.012
12,ATCGATTG,-0.0412 ± 0.022
13,AACGCCAG,0.0237 ± 0.0043
14,GCAAGGGC,-0.184 ± 0.095
15,CATCCCGG,-0.28 ± 0.0046
16,ACCTGTAG,0.173 ± 0.054
17,ACAAGAAG,-0.105 ± 0.037
18,ATAAGAGG,-0.0944 ± 0.061
19,GTGGCAGA,0.00178 ± 0.0022
20,ATGTGCCG,0.0963 ± 0.036
21,GAACATGA,-0.108 ± 0.04
22,CCGCTTAC,-0.113 ± 0.077
23,CGAAATTA,0.116 ± 0.044
24,CTACCTGC,-0.0287 ± 0.065
25,CACGACCA,0.0508 ± 0.0062

row,Sequence,PBM E-score of 8-mer
1,ATCCGAGA,-0.146 ± 0.0062
2,AGGTATAG,-0.096 ± 0.03
3,CTGAACAC,0.125 ± 0.019
4,AGCCATCC,-0.151 ± 0.054
5,GCGTAGGA,-0.04 ± 0.069
6,CACAGCCA,-0.0334 ± 0.062
7,AGCTGGGA,-0.0311 ± 0.0099
8,GAGTACCC,0.0315 ± 0.01
9,CGCCCAGC,0.0496 ± 0.11
10,AGGCCGTC,-0.21 ± 0.012
11,ATATTAAG,-0.056 ± 0.14
12,GCAACGCC,0.189 ± 0.041
13,AAATGACC,-0.12 ± 0.015
14,AAAACTTT,-0.0193 ± 0.06
15,AACGGCCA,0.0414 ± 0.0074
16,CACTGGTC,-0.173 ± 0.027
17,GCGTCAAA,0.343 ± 0.018
18,CGGTTACC,-0.127 ± 0.0093
19,ACACGCGT,0.2 ± 0.036
20,AGTTGCTC,0.0211 ± 0.015
21,CGAAACGC,-0.00295 ± 0.014
22,GAATGCCA,-0.0279 ± 0.024
23,AGTAGCGG,-0.0625 ± 0.095
24,ATCCTTTC,-0.2369 ± 0.0022
25,GGCCTAAA,-0.147 ± 0.016

row,Sequence,PBM E-score of 8-mer
1,ACAGACAG,-0.0428 ± 0.02
2,ACCAGTGG,-0.165 ± 0.035
3,ACTGTCGA,0.191 ± 0.01
4,GACGTCGA,-0.098 ± 0.0024
5,GGCGGGGA,-0.0683 ± 0.085
6,CCGATCTA,-0.185 ± 0.016
7,ACAGTGGT,-0.0119 ± 0.05
8,CAAGCTTC,-0.2619 ± 0.0003
9,ACGGAACA,-0.0669 ± 0.063
10,ACCGGCTG,-0.307 ± 0.019
11,CTTACTGC,-0.049 ± 0.048
12,GTTATCAA,0.131 ± 0.076
13,ACCGCGAA,0.259 ± 0.018
14,GCGACGTA,-0.155 ± 0.04
15,CATACCCC,-0.18 ± 0.035
16,CCAATAAC,0.0548 ± 0.014
17,GGTCATAC,-0.0716 ± 0.021
18,GCCCCTCA,-0.00751 ± 0.012
19,AACGTGAA,0.11 ± 0.053
20,ATCAGCGA,0.146 ± 0.047
21,CTTATGGA,-0.165 ± 0.063
22,ATCGATCG,1e-05 ± 0.034
23,ATGATGGA,-0.173 ± 0.0018
24,AATAGCTC,-0.124 ± 0.02
25,CGACACGC,0.184 ± 0.034

row,Sequence,PBM E-score of 8-mer
1,CAGGCTGG,-0.0965 ± 0.095
2,CTAATCCC,-0.23 ± 0.019
3,AAGCACAC,0.201 ± 0.0026
4,CTATCGGA,-0.152 ± 0.04
5,ATCCCGGC,-0.3 ± 0.057
6,AAAGCGCG,0.314 ± 0.016
7,AAGTCTGC,0.0421 ± 0.0067
8,CTAGACCC,-0.0979 ± 0.07
9,TGTTTCAA,-0.0292 ± 0.082
10,ATTTCCGA,-0.0615 ± 0.018
11,GCAATATA,0.0293 ± 0.12
12,AACAAAGA,0.0244 ± 0.041
13,AAACAGCA,0.0668 ± 0.026
14,CTGTGCGA,0.236 ± 0.011
15,CTGGAGTA,-0.0592 ± 0.074
16,CGTGAGTC,0.0932 ± 0.04
17,GCTACGGA,-0.174 ± 0.0021
18,CAACACGC,0.229 ± 0.019
19,CGCCCATC,-0.00351 ± 0.13
20,AGACTTCG,-0.0953 ± 0.026
21,ACCCCCAA,0.00527 ± 0.078
22,ACGCCTAA,0.235 ± 0.025
23,AAACCTCC,-0.217 ± 0.093
24,AGTTCTGC,-0.332 ± 0.0036
25,ACTAATAA,-0.0146 ± 0.0047

row,Sequence,PBM E-score of 8-mer
1,CGCGTACG,0.102 ± 0.016
2,ACTCCGAT,-0.0934 ± 0.086
3,ATGGGCTC,-0.154 ± 0.16
4,CGATCTAG,0.025 ± 0.0082
5,AGACCTTG,-0.174 ± 0.013
6,CTGCGCCA,0.0685 ± 0.04
7,AACTTCGC,0.108 ± 0.035
8,TGTCCGAA,-0.175 ± 0.07
9,AGGTTGAG,-0.123 ± 0.083
10,ATAATGAC,-0.037 ± 0.054
11,AACCTCTA,-0.151 ± 0.025
12,CTGTTTTC,0.0165 ± 0.019
13,ACAGGAGC,0.052 ± 0.02
14,CCAGCAGG,-0.133 ± 0.045
15,GTGCGGTA,0.0887 ± 0.027
16,AGCTCAAT,-0.213 ± 0.0047
17,AGTAGAGC,0.00365 ± 0.047
18,CTTACTCA,-0.0983 ± 0.016
19,AACTGGAG,-0.0661 ± 0.0033
20,ATAGAAAC,-0.231 ± 0.036
21,AACGTATC,-0.171 ± 0.048
22,CCGGTACC,-0.167 ± 0.048
